# In PubChem BioAssay AID588855 (National Center for Advancing Translational Sciences (NCATS), 2011):
# About 5,000 (1.2%) of roughly 410,000 compounds were called active. The inconclusive results got no clear call from the source; some entries with a clear call stand among them for comparison. Calls come from the whole dose curve; as a rule, active = well fitted inhibition curve with a large enough effect; inconclusive = small, poorly fitted or top-dose-only effect; inactive = no such curve, though single readings can be large or run the other way. Where the call is inconclusive, the potency comes from a doubtful curve fit.
# Experiment: qHTS for Inhibitors of TGF-b; note: nearly all actives have a fitted effect of over 65% in size
# Settings: HepG2 CAGA-GFP TGF-b/SMAD3 reporter, GFP fluorescence, 18 h, TGF-beta stimulated, 500 pg/mL final; series mostly up to 46.1 µM; activity, negative = inhibition: at the top concentration
# How it was run: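 Cell-based qHTS in HEPG2 carrying a CAGA-GFP Smad reporter; compounds added before 500 pg/mL final TGF-beta, 18 h incubation at 37 degrees C, GFP fluorescence quantified per cell by imaging cytometry.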
# % is set by controls: 0 for no effect and ±100 for the full control effect; potency is the fitted concentration of half-maximal effect; tags give direction and shape of the fitted curve.
SMILES,Potency,"activity, negative = inhibition"
O=C1/C(=C/c2ccncc2)Oc2cc(OS(=O)(=O)c3ccccc3)ccc21,"inconclusive: 5.62 µM [inhibitor, single point]",–
Cc1ccc(/C=C2\C(=O)NC(=O)N2C)o1,–,inactive: -0.703%
c1ccc2c(c1)CCN(c1ncnc3c1[nH]c1ccccc13)C2,"inconclusive: 11.2 µM [inhibitor, single point]",–
Cc1ccc(NC(=O)CSc2nc3nc(C)c(Br)cc3[nH]2)cc1F,"inconclusive: 35.5 µM [inhibitor, single point]",–
COc1ccc(Cl)cc1NCCC(O)c1ccc(F)cc1 (centres undefined),"inconclusive: 35.5 µM [inhibitor, single point]",–
Cc1ccc(C(=O)NCCc2ccncc2)cc1,–,inactive: 1.45%
CCCCn1nnnc1C(c1cccc2ccccc12)N1CCN(C/C=C/c2ccccc2)CC1 (centres undefined),active: 11.2 µM,–
Cc1[nH]n(C2=NCCS2)c(=O)c1N=Nc1cccc(C(F)(F)F)c1,"inconclusive: 3.98 µM [inhibitor, single point]",–
CCOC(=O)CSc1nc2cc3c(cc2c(=O)n1CCCCCC(=O)NCc1ccc(OC)cc1)OCO3,–,inactive: -29.9%
CCOc1ccc(NC(=O)c2oc3ccccc3c2NC(=O)c2cc3ccccc3o2)cc1,"inconclusive: 5.01 µM [inhibitor, full curve, poor fit]",–
COc1ccc(N2CCN(CCCNC(=O)c3ccc4nc(N5CCCCC5)sc4c3)CC2)cc1,"inconclusive: 0.112 µM [inhibitor, full curve, poor fit]",–
Cc1ccc(-c2cc([C@H]3[C@@H]4C=CCC[C@@]4(C)C(=O)N3Cc3ccccc3)ccc2F)cc1,"inconclusive: 8.91 µM [inhibitor, partial curve, poor fit]",–
CC1(C(=O)NCc2ccc(F)c(F)c2)Cc2c(-c3ccccc3)ccnc2O1 (centres undefined),–,inactive: 9.65%
CC1(C)CCC[C@]2(C)C(CS(=O)c3ccccc3)=C(C=O)CC[C@@H]12 (some centres undefined),"inconclusive: 35.5 µM [inhibitor, single point]",–
CC(C)CCOc1ccc(CO[C@@H]2[C@H]3OC(C)(C)O[C@H]3O[C@@H]2C(O)CO)cc1 (some centres undefined),–,inactive: -3.38%
Clc1cccc(CNc2ncnc3nc[nH]c23)c1,–,inactive: -0.569%
COc1ccc(-c2ccc3c(c2)C2CC3CCN2S(=O)(=O)c2ccccc2C)cc1 (centres undefined),–,inactive: -19.8%
COc1cc(OC)cc(C(=O)NNC(=O)c2cc(S(=O)(=O)N3CCOCC3)ccc2F)c1,"inconclusive: 20 µM [inhibitor, single point]",–
Cc1cc(-n2nc(C)cc2C)nc(NS(=O)(=O)c2ccccc2)n1,"inconclusive: 15.8 µM [inhibitor, partial curve, poor fit]",–
